# Data as given in PubChem BioAssay AID2107 (National Center for Advancing Translational Sciences (NCATS), 2009).
# Screen size: about 240,000 compounds; about 20 (0.008%) were called active. This list was built around the results that the source calls inconclusive (neither active nor inactive); the mix of calls is not that of the screen. Calls come from the whole dose curve; as a rule, active = well fitted inhibition curve with a large enough effect; inconclusive = small, poorly fitted or top-dose-only effect, or effect the other way; inactive = flat fitted curve, though single readings scatter. No potency is given beside an inconclusive call; the fits are too rough. Some compounds were tested as several samples or in several runs, with calls that do not always agree.
# Target: Alpha-galactosidase A (Homo sapiens) (UniProt P06280)
# Test: qHTS Assay for Inhibitors and Activators of Human alpha-Galactosidase From Spleen Homogenate;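 for activity change, negative = inhibition: 0% = enzyme with vehicle and -100% = no enzyme basal signal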
# Conditions: 4MU-alpha-Gal fluorescence, 40 min; activity change, negative = inhibition: at 80 µM (top of the series)
# Summary of the method: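 Human spleen homogenate (1 ug) was the enzyme source, with 4-methylumbelliferyl-alpha-D-galactopyranoside (1 mM final) in pH 5.0 citrate buffer with 0.01% Tween-20. Compounds were titrated; after 40 min at 37C, NaOH/glycine stop, 4-MU fluorescence read; AC50 from Hill fits.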
# Potency is the fitted concentration of half-maximal effect; tags give direction and shape of the fitted curve.
# Chain of UniProt P06280 (P06280 whole entry, looked up): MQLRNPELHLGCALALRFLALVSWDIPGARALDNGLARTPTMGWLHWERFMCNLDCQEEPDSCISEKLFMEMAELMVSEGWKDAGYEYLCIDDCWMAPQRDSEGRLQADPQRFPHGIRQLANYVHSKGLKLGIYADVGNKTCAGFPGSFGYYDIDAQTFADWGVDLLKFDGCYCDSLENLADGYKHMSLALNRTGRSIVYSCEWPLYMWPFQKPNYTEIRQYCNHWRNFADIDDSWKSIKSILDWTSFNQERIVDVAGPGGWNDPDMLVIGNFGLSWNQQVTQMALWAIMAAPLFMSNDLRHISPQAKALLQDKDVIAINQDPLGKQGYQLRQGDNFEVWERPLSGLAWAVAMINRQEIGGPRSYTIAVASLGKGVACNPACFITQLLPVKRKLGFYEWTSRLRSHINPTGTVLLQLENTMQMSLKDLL
Structure (SMILES),Potency,"activity change, negative = inhibition"
CCc1cc2c(C)cc(=O)oc2cc1OC(=O)C1CCCN1C(=O)OC(C)(C)C (configuration not stated),"inconclusive [activator, partial curve]",
Cc1cc(/C=N/NC(=O)Cn2c3ccccc3c(=O)c3ccccc32)c(C)n1-c1ccccc1,"inconclusive [activator, partial curve]",
O=C(O)CC[C@@H](C(=O)O)N1C(=O)c2ccccc2C1=O,active: 7.94 µM,
COc1ccc(-c2nnc(SCC(=O)N3CCCC(C)C3)o2)c(OC)c1 (configuration not stated),"inconclusive [inhibitor, single point]",
COc1ccc(Cl)cc1NC(=O)CN(C(=O)c1ccco1)C1CCCCC1,inactive,
Oc1cc2ccccc2nc1-c1ccccc1Cl,"inconclusive [activator, partial curve]",
COCCNC(=O)c1c(N)n(CCCn2ccnc2)c2nc3ccccc3nc12,"inconclusive [activator, partial curve]",
CC(C)CN(Cc1c(O)ccc2c3c(c(=O)oc12)CCC3)CC(C)C,"inconclusive [activator, full curve]",
CCS(=O)(=O)c1ccc2oc(SCC(=O)N3CCCCC3)nc2c1,"inconclusive [inhibitor, single point]",
CC(C)C[C@H](NC(=O)[C@H](CCCCN)NC(=O)[C@H](CCCNC(=N)N)NC(=O)[C@H](C)NC(=O)[C@H](CO)NC(=O)[C@H](CCCCN)NC(=O)[C@H](CCCNC(=N)N)NC(=O)[C@H](C)NC(=O)CNC(=O)[C@@H](NC(=O)[C@H](Cc1ccccc1)NC(=O)CNC(=O)CNC(=O)[C@@H](N)Cc1ccccc1)[C@@H](C)O)C(=O)N[C@@H](C)C(=O)N[C@@H](CC(N)=O)C(=O)N[C@@H](CCC(N)=O)C(=O)O,inactive,
CC(=O)c1ccc(C2CC34CNS(=O)(=O)C3CC2O4)cc1 (configuration not stated),inactive,
O=C(O)c1ccccc1OS(=O)(=O)O,inactive,
CCC(C(=O)Nc1ccc(OC)c(Cl)c1)c1ccccc1 (configuration not stated),inactive,
CCc1cc(=O)oc2c(CN3CCN(C)CC3)c(O)c(Cl)cc12,"inconclusive [activator, partial curve]",
Cc1cc(=O)n(C(NC(=O)c2ccccc2)C(=O)c2ccccc2)cn1 (configuration not stated),"inconclusive [inhibitor, single point]",
O=c1oc2c(CN3CCCCC3)c(O)ccc2c2c1CCCC2,"inconclusive [activator, partial curve]",
N#Cc1nc(/C=C/c2ccccc2)oc1NCCCN1CCOCC1,"inconclusive [activator, partial curve]",
Cc1ccc(CNC(=O)C2CCCN(S(=O)(=O)c3cccnc3)C2)cc1 (configuration not stated),inactive,
CC(C)Oc1ccc(CC2CC(=O)NC2=O)cc1 (configuration not stated),"inconclusive [inhibitor, single point]",
CCNc1ncc2nc(CCc3ccccc3)c(=O)n(C)c2n1,"inconclusive [activator, partial curve]",
CC(C)c1nnc(NC(=O)CCC(=O)Nc2ccc(F)cc2)s1,"inconclusive [activator, partial curve]",

Structure (SMILES),Potency,"activity change, negative = inhibition"
N#C/C(=C(/O)CCCl)c1ccccn1,"inconclusive [activator, partial curve]",
CC#CCN1c2ccccc2[C@]23C[C@@H](C(=O)OC)N(S(=O)(=O)c4cccs4)C2=NC(C(=O)OC)=C(C(=O)OC)[C@H]13,,inactive: 1.97% [at 17.5 µM]
COc1ccccc1C1CN(c2ccc(F)cc2F)N=C1c1cccs1 (configuration not stated),"inconclusive [activator, partial curve]",
Cc1csc2ncc(C(=O)NCc3ccccn3)c(=O)n12,"inconclusive [activator, single point]",
COc1cc2cc(CN(Cc3nnnn3Cc3ccccc3)CC3CCCO3)c(=O)[nH]c2cc1OC (configuration not stated),"inconclusive [activator, partial curve]",
Cc1ccc(N2C(=O)C3ON(c4ccccc4)C(c4ccncc4)C3C2=O)cc1 (configuration not stated),inactive,
Cc1ccc(-c2cn3cccnc3n2)cc1NC(=O)c1c(-c2ccccc2Cl)noc1C,"inconclusive [activator, partial curve]",
O=S(=O)(NC1CCCC1)c1cccc(S(=O)(=O)N2CCC(n3nnc4ccccc43)CC2)c1,"inconclusive [inhibitor, partial curve]",
CC(C)NC(=O)CSc1nncn1-c1ccccc1,inactive,
COCC(=O)Nc1ccc(-c2cn3cccnc3n2)cc1,"inconclusive [activator, partial curve]",
Cc1ccccc1Nc1nc(CSc2nnnn2-c2ccccc2)cs1,inactive,
[O-]/C(=C(\C(=S)NCCN1CCOCC1)[n+]1ccccc1)c1ccc(Cl)s1,"inconclusive [inhibitor, single point]",
CC(=O)N1CCN(CCN=CC2=C(O)CC(c3ccco3)CC2=O)CC1 (configuration not stated),"inconclusive [inhibitor, single point]",
CC1C2=C(CC(C)(C)CC2=O)NC2=C1C(=O)CC(C)(C)C2,"inconclusive [activator, partial curve]",
COC(=O)C(NNc1ccccc1)(NC(=O)c1ccc(F)cc1)C(F)(F)F (configuration not stated),inactive,
O=c1oc2c(CN3CCCCC3)c(O)ccc2c2c1CCCCC2,"inconclusive [activator, partial curve]",
O=C(Nc1ccc2c(c1)CCC2)c1ccc(Br)o1,inactive,
CC(=O)Nc1c(OC(C)=O)ccc2c(C)cc(=O)oc12,"inconclusive [activator, partial curve]",
CCOC(=O)/C(C(C)=O)=C1\OC(=O)c2ccccc21,"inconclusive [activator, single point]",
CN(C)c1nc(-c2cccnc2)nc2ccccc12,active: 28.2 µM,
COC(=O)c1[nH]c2ccc(C)cc2c1NC(=O)CN1CCN(c2ccc(F)cc2)CC1,"inconclusive [activator, single point]",
